{"source": "the supplement of paper PMC11417369", "note": "± gives the standard deviation of the averaged measurements. The list shows a part of the results.", "data": [{"tested_on": "PfAP2-I AP2 domain 3 (GST-tagged)", "experiment": "gcPBM binding intensity (ln(normalized median fluorescence intensity)); higher = stronger DNA binding", "outline": "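GST-tagged P. falciparum DNA-binding domains, expressed in E. coli (about 25 μg on average), were applied for 1 h to an Agilent 4 × 180k array of primer-extended double-stranded 36-bp intergenic genomic probes plus negative controls. The binding buffer was 1× PBS with 1% milk, 0.2 mg/ml BSA, 0.5% salmon testes DNA and 0.03% Triton X-100. Bound protein was detected with Alexa488 anti-GST antibody and scanned at 488 nm. Binding intensity is the highest Masliner-normalised natural-log median intensity across replicate spots of either probe orientation.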", "values": [{"sequence": "TTTTCATTTGTGACAGTGCAAAATGTTATATTAAAA [GTGCAC_site9647]", "gcPBM binding intensity (ln)": "9.99 ± 0.3"}, {"sequence": "TATAAAATGATGATATGTACTTATGTAGTTTTTTTA [XGTACX_site8711]", "gcPBM binding intensity (ln)": "7.46 ± 0.28"}, {"sequence": "AATATATGGTTTCATGATATTAAATTCAAAATAATG [CACACA_negctrl_site318]", "gcPBM binding intensity (ln)": "7.49 ± 0.43"}, {"sequence": "AATAATACATCCTTAGTGCAGAAATAAAAATTAAGC [GTGCAC_site9955]", "gcPBM binding intensity (ln)": "9.76 ± 0.24"}, {"sequence": "TATTTATTGTGACACTTATATTATTTTATGATTAAA [CACACA_negctrl_site525]", "gcPBM binding intensity (ln)": "7.96 ± 0.45"}, {"sequence": "TTTGTAATAAATAAGAGTACAAGTATGGTTCCACTA [XGTACX_site2579]", "gcPBM binding intensity (ln)": "7.97 ± 0.42"}, {"sequence": "TGTATACATTCTGAATGTACGGAACACCTCATAACT [XGTACX_site7240]", "gcPBM binding intensity (ln)": "7.71 ± 0.66"}, {"sequence": "TATATATAAAAACACACACACACACCCTATAATTAT [CACACA_site4063]", "gcPBM binding intensity (ln)": "8.27 ± 0.15"}, {"sequence": "TTTCAAATTTAATACACACACAAGTATATATTTATC [CACACA_site3947]", "gcPBM binding intensity (ln)": "7.78 ± 0.4"}, {"sequence": "TTGTGTTATCACACGAAGGGGATAAGACATAAATGT [TGCATGCA_negctrl_site368]", "gcPBM binding intensity (ln)": "7.87 ± 0.91"}, {"sequence": "TTTTTGTTTGAACACTGTACGTATAAATATAAAAGT [XGTACX_site6476]", "gcPBM binding intensity (ln)": "8.49 ± 0.2"}, {"sequence": "AATGTGTTTTTTTTTTTTTTTTTTTTCAATCTCTAT [CACACA_negctrl_site794]", "gcPBM binding intensity (ln)": "7.46 ± 0.51"}, {"sequence": "GAAAAAAGAAAAAAAAGTACACACATGTATATTAAT [XGTACX_site5265]", "gcPBM binding intensity (ln)": "7.71 ± 0.74"}, {"sequence": "AATGTACACCCACCCACACACAAACAAATATATATA [CACACA_site5521]", "gcPBM binding intensity (ln)": "8.62 ± 0.79"}, {"sequence": "TTATATTATGTTCAATCAAAAATTATTTTTAAAAAA [XGTACX_negctrl_site595]", "gcPBM binding intensity (ln)": "7.67 ± 0.53"}, {"sequence": "TATGTTCCATTTTTTGGTACACATACAATAACTGCT [XGTACX_site2256]", "gcPBM binding intensity (ln)": "7.62 ± 0.47"}, {"sequence": "ATTACATACGAGCACACGTAAAAGTATAATATAAAA [GTGCAC_negctrl_site446]", "gcPBM binding intensity (ln)": "7.92 ± 0.53"}, {"sequence": "TTTGTATTGTGCAGATGTACATTATAATATTGGATT [XGTACX_site5033]", "gcPBM binding intensity (ln)": "8.34 ± 0.41"}, {"sequence": "TTATATATAATATATACACACACATGTATATATAAA [CACACA_site8603]", "gcPBM binding intensity (ln)": "7.83 ± 0.48"}, {"sequence": "AACAAATACAAAGAATAGTCATCTGAATGGTGTTAT [GTGCAC_negctrl_site685]", "gcPBM binding intensity (ln)": "7.57 ± 0.71"}, {"sequence": "ATAAATAAAATAAAAGCACACAAAATGTAAATAATT [CACACA_site8895]", "gcPBM binding intensity (ln)": "8.56 ± 0.54"}, {"sequence": "AAAAAAAAAAAAAGTACACACATACCTATAAATATA [CACACA_site6937]", "gcPBM binding intensity (ln)": "8.16 ± 0.16"}, {"sequence": "TTTTTATTTTATTAGTGTACTTTATATTTAACAATA [XGTACX_site1175]", "gcPBM binding intensity (ln)": "8.13 ± 0.12"}, {"sequence": "TTTATTTTTATAAGAGCATGCACTGTTTAAAATGGT [TGCATGCA_site628]", "gcPBM binding intensity (ln)": "8.35 ± 0.34"}, {"sequence": "TTTATATACATTTTAAATTTTAATGTAACCCATGGG [TGCATGCA_negctrl_site115]", "gcPBM binding intensity (ln)": "7.34 ± 0.42"}, {"sequence": "TATATATTTATAAATGAACACACACCCAATTTGAAT [CACACA_site9113]", "gcPBM binding intensity (ln)": "8.36 ± 0.16"}, {"sequence": "TATTTCTGATTACATACACACATATACAGATATGAC [CACACA_site7490]", "gcPBM binding intensity (ln)": "7.82 ± 0.6"}, {"sequence": "TATATACCTATATACACACACATATATAAATAAATA [CACACA_site7341]", "gcPBM binding intensity (ln)": "7.88 ± 0.3"}, {"sequence": "ATAAAGATTAATTCAAGTACACATCAAATACTACAA [XGTACX_site8794]", "gcPBM binding intensity (ln)": "7.88 ± 0.27"}, {"sequence": "TATATATATTTATGTACACACATCAATCATATTAAC [CACACA_site5127]", "gcPBM binding intensity (ln)": "8.18 ± 0.47"}, {"sequence": "CATATACATATATGTAGTACGTGTTCTTCTATATGA [XGTACX_site8344]", "gcPBM binding intensity (ln)": "7.91 ± 0.49"}, {"sequence": "AAATTGAATTAGTTAACACACAACTTTTATTTCATA [CACACA_site2840]", "gcPBM binding intensity (ln)": "7.62 ± 0.77"}, {"sequence": "TACATATACAGACACACACACACACCCCCACAAAAA [CACACA_site495]", "gcPBM binding intensity (ln)": "9.96 ± 0.12"}, {"sequence": "AAATTAATAAGTCACACACACATATATAATATATAT [CACACA_site799]", "gcPBM binding intensity (ln)": "7.8 ± 0.61"}, {"sequence": "AATATATACATTTATATACACACCTATATATATATA [CACACA_site1972]", "gcPBM binding intensity (ln)": "9.21 ± 0.33"}, {"sequence": "GTTATATGTTATATATATATATATATATATATATAT [TGCATGCA_negctrl_site428]", "gcPBM binding intensity (ln)": "9.16 ± 0.69"}, {"sequence": "AGCATCATTTTACACACATGCAAATGTAAAATAGGA [TGCATGCA_site460]", "gcPBM binding intensity (ln)": "8.08 ± 0.73"}, {"sequence": "ATATTCATATATACTTCACACACATTTTATCATTCA [CACACA_site8784]", "gcPBM binding intensity (ln)": "7.97 ± 0.51"}, {"sequence": "AAAAAAAAAAATAAATAAATAAATAAATATATATAT [TGCATGCA_negctrl_site468]", "gcPBM binding intensity (ln)": "8.81 ± 0.11"}, {"sequence": "TACATACATATATATACACACATATATAATATATAT [CACACA_site388]", "gcPBM binding intensity (ln)": "7.89 ± 0.27"}, {"sequence": "TATATATACATATACACACATACGTACATACATATA [CACACA_site3585]", "gcPBM binding intensity (ln)": "8.07 ± 0.29"}, {"sequence": "ATGAAAGTAAGACATGCATGGAATTTTTTTTATTAG [TGCATGCA_site348]", "gcPBM binding intensity (ln)": "7.46 ± 0.89"}, {"sequence": "GGAATATTTTATGAGTGTACATTTTTTTTTTTTTTT [XGTACX_site2370]", "gcPBM binding intensity (ln)": "8.52 ± 0.59"}, {"sequence": "TTTCTTTTTTTTTTTTTTTCTTTTTTTTTTTTTTTC [CACACA_negctrl_site1025]", "gcPBM binding intensity (ln)": "7.63 ± 0.84"}]}]}
